Results taken from PubChem BioAssay AID445 (National Center for Advancing Translational Sciences (NCATS), 2006).
The whole screen tested about 110,000 compounds, of which about 40 (0.04%) were called active. Inconclusive results, whose numbers are uncertain, are shown with a selection of clear calls. The call rests on the fitted dose curve; in most records, active means well fitted curve in the direction sought with a large enough effect in the signal ratio (not every such curve was filed as active); inconclusive means small, poorly fitted or top-dose-only effect, or a change in a side signal; inactive means flat fitted curve, though single readings scatter; the % refers to the signal ratio. Potencies beside an inconclusive call are fits to weak or partial responses and may not hold up.

Experiment: IkB Signaling;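 on IkBa stabilization activation: 0% = basal untreated cells and 100% = reference inhibitor full response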
Conditions: ABC-DLBCL IkBa-CBG/CBR dual luciferase ratio (green luciferase fused to IkBa over red control in OCI-Ly3 lymphoma cells), 4 h; IkBa stabilization activation: at 57.1 µM (top of the series), scaled: untreated 0%, proteasome inhibitor 100% unless noted
Procedure, shortened: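 Luminescence ratio of IκBα-fused green versus native red beetle luciferase in OCI-Ly3 cells, 4 h post-doxycycline with compound; red signal alone, scaled from basal (0%) to zero light (-100%), flagged nonspecific or cytotoxic effects.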
Potency means the concentration at half of the fitted maximal effect.

Structure (SMILES) | IkBa stabilization activation | Potency
O=c1oc2ccc(Br)cc2cc1-c1nc(-c2ccccc2)no1 | inconclusive: 14.8% [signal inhibitor] | 
CC(C)OCCCN1C(=O)c2[nH]nc(-c3ccccc3O)c2C1c1cccc(Cl)c1 (stereo unspecified) | inconclusive: -6.65% [signal inhibitor] | 
Cc1cccc(NC(=O)CSc2nc3c(oc4ccccc43)c(=O)n2C(C)C)c1 | inconclusive: 1.01% [signal inhibitor] | 
CC(C)c1nnc(NC(=O)CSc2nc3ccccc3s2)s1 | inconclusive: 1.92% [signal inhibitor] | 
Cc1nnc2ccc(Oc3ccc(-c4ccccc4)cc3)nn12 | inactive: -1.15% | 
O=c1c2cnn(-c3ccccc3)c2nc(-c2ccco2)n1-c1ccccc1 | inconclusive: -3.54% [signal inhibitor] | 
COCCn1c(SCC(=O)N2CCC(C)CC2)nc2ccccc2c1=O | inactive: 1.12% | 
COCCNC(=O)CCCn1c(SCC(=O)Nc2cccc(C)c2)nc2c(sc3ccccc32)c1=O | inconclusive: 4.05% [signal inhibitor] | 
O=C(c1ccc(CNS(=O)(=O)c2ccccc2)cc1)N1CCN(c2ccccn2)CC1 | inconclusive: 1.31% [signal inhibitor] | 
CCc1nc(SCC(=O)Nc2ccccc2C(=O)OC)n[nH]1 | inactive: -0.171% | 
Cc1cccc(N2CCN(CCCNc3ncnc4onc(-c5ccc(F)cc5)c34)CC2C)c1 (stereo unspecified) | inconclusive: 0.913% [signal inhibitor] | 
CC(C)=CCNc1ncnc2nc[nH]c12 | inactive: -0.334% [at 11.4 µM, scaled: untreated 0%, proteasome inhibitor 100%] | 
Cc1c(/C(O)=C2/C(=O)C(=O)N(CCN3CCOCC3)C2c2cccs2)cnn1-c1ccccc1 (stereo unspecified) | inactive: -5.14% | 
CC1(C)CC[C@]2(C(=O)O)CC[C@]3(C)C(=CC[C@@H]4[C@@]5(C)CC[C@H](O)C(C)(C)[C@@H]5CC[C@@]43C)[C@@H]2C1 | inactive: -0.822% [at 11.4 µM, scaled: untreated 0%, proteasome inhibitor 100%] | 
O=C(CCNS(=O)(=O)c1ccc2c(c1)CCN2C(=O)C1CC1)Nc1ccc(OC(F)(F)F)cc1 | inconclusive: 1.66% [signal inhibitor] | 
COc1cccc(C(=O)Nc2ccc3nc(SCCOc4ccccc4)sc3c2)c1 | inconclusive: 1.68% [signal inhibitor] | 
N#C/C(=C\N1CCNC1=S)C(=O)c1ccc2ccccc2c1 | inactive: 0.318% [at 11.4 µM, scaled: untreated 0%, proteasome inhibitor 100%] | 
CC(=O)c1ccc2c3c(ccc(O)c13)CC2 | inactive: -0.951% | 
CCc1ccc2oc(-c3cc(NC(=O)c4cccs4)ccc3Cl)nc2c1 | inconclusive: -1.68% [signal inhibitor] | 
CC(C)Cn1c(N)c(C(=O)NCCN2CCOCC2)c2nc3ccccc3nc21 | inactive: -0.0993% | 
COC(=O)C1CCN(C(=O)COc2ccc(Cl)cc2)CC1 |  | inconclusive: 20 µM [signal inhibitor, partial curve]
COC(=O)CN1C(=O)CSc2ccc(S(=O)(=O)Nc3ccc(C)c(Cl)c3)cc21 | inconclusive: 5.69% [signal inhibitor] | 

Structure (SMILES) | IkBa stabilization activation | Potency
CCOCC(=O)Nc1nc2ccc(C)cc2s1 |  | inconclusive: 25.1 µM [signal inhibitor, partial curve]
CC(=O)O[C@H](CC(=O)O)C[N+](C)(C)C | inactive: -0.00436% | 
CCCCCOc1ccc(/C=C/C(=O)Nc2sc3c(c2C(=O)OCC)CCC3)cc1OC | inconclusive: 9.89% [signal inhibitor] | 
CCCCOc1cccc(C2c3c(-c4cc(C)ccc4O)n[nH]c3C(=O)N2CCOC)c1 (stereo unspecified) | inconclusive: -4.65% [signal inhibitor] | 
CCC(C)(C(=O)NC1CCCC1)N(CC1CCCO1)C(=O)c1ccc2c(c1)OCO2 (stereo unspecified) | inactive: -0.359% | 
CCCN1C(C(=O)c2ccccc2)=C(OC(=O)COc2ccc(C)cc2)c2ccccc2S1(=O)=O | inconclusive: 4.56% [signal inhibitor] | 
Cc1ccc(NC(=O)C2CCCN(S(=O)(=O)c3cccs3)C2)c(C)c1 (stereo unspecified) | inconclusive: 1.06% [signal inhibitor] | 
Cc1cc(O)c(CN2CCN(c3ccccc3)CC2)c2oc(=O)cc(C)c12 | inactive: -0.109% | 
O=C(Nc1c2c(nn1-c1ccc(Cl)cc1)CS(=O)(=O)C2)c1ccc(Br)cc1 | inactive: 5.41% | 
CCCCN(CCCC)C(=O)c1c[nH]c2ccc(S(=O)(=O)Nc3cccc(Cl)c3C)cc2c1=O | inconclusive: 0.826% [signal inhibitor] | 
COc1cc(-c2nn3c(Cc4ccccc4)nnc3s2)cc(OC)c1OC | inactive: -0.779% | 
CCN1CCN(C(=O)Cn2ncc3c4ccccc4n(Cc4c(C)cc(C)cc4C)c3c2=O)CC1 | inconclusive: -1.08% [signal inhibitor] | 
COc1cccc2cc(C(=O)Nc3ccc(C)cc3)c(=O)oc12 |  | inconclusive: 12.6 µM [signal inhibitor, partial curve]
O=C(c1ccccc1)c1ccc(N2CCNCC2)cc1 | inactive: -2.05% | 
Cc1ccc2c(=O)cc(C(=O)Nc3sc4c(c3C(=O)NCc3cccnc3)CCCC4)oc2c1 | inconclusive: 8.49% [signal inhibitor] | 
O=C(NC1CCCCC1)c1noc2c1CCCCC2 |  | inconclusive: 15.8 µM [signal inhibitor, partial curve]
O=C(CSc1ncnc2c1cnn2-c1ccccc1)Nc1ccc2c(c1)OCO2 | inconclusive: 3.59% [signal inhibitor] | 
Cc1ccc(CN(C(=O)COc2ccc(F)cc2)C2CCS(=O)(=O)C2)o1 (stereo unspecified) | inconclusive: 0.758% [signal inhibitor] | 
Cc1ccc(-n2ncc(C(=O)NCCN3CCC(Cc4ccccc4)CC3)c2C2CCN(C(=O)OC(C)(C)C)CC2)cc1 | inconclusive: -7% [signal inhibitor] | 
Cc1cc(NS(=O)(=O)c2ccc(NC(=O)COc3cc(C)c(Br)cc3C(C)C)cc2)no1 | inconclusive: 5.8% [signal inhibitor] | 
CCOc1ccc(N(CC)C(=O)Cn2cnc3sc(C)c(S(=O)(=O)N4CCN(c5ncccn5)CC4)c3c2=O)cc1 | inactive: 2.74% | 
CCOC(=O)c1ccc(NC(=O)c2c(O)c3ccccc3n(C)c2=O)cc1 |  | inconclusive: 0.794 µM [signal inhibitor, full curve]

Structure (SMILES) | IkBa stabilization activation | Potency
O=C1CN(C(=O)c2ccc(S(=O)(=O)N3CCCC3)cc2)C(c2ccc(F)cc2)c2cc(Br)ccc2N1 (stereo unspecified) | inconclusive: 2.8% [signal inhibitor] | 
CN1CCN(c2nc3cc(C(F)(F)F)ccc3n3cccc23)CC1 | inconclusive: 0.563% [signal inhibitor] | 
COC(=O)c1ccccc1NC(=O)NCc1ccc2c(c1)CCN2C(=O)c1ccccc1 | inconclusive: -1.07% [signal inhibitor] | 
Cc1ccc2c(c1)N(C(=O)N1CCC(C(=O)Nc3cccc(F)c3)CC1)CCO2 | inconclusive: 0.323% [signal inhibitor] | 
COC(=O)c1ccc(CSc2nnc(SCc3ccc(C(=O)OC)o3)s2)o1 | inactive: 2.88% | 
COc1cc(Nc2nc3c(S(=O)(=O)c4ccccc4)nnn3c3ccc(Cl)cc23)cc(OC)c1 | inactive: 0.662% | 
COc1ccc(-c2nn(C)c3sc(C(=O)NCc4ccco4)cc23)cc1OC | inactive: 0.471% | 
COc1ccccc1Nc1cc(C(=O)NCCCN(C)C2CCCCC2)c2ccccc2n1 | inconclusive: -1.87% [signal inhibitor] | 
Cc1cc(C)cc(NC(=O)[C@H]2O[C@@H]3OC(C)(C)O[C@@H]3[C@H]3OC(C)(C)O[C@H]32)c1 | inconclusive: 0.289% [signal inhibitor] | 
CCCCN(CC)C(=O)CSc1nc2c(sc3ccccc32)c(=O)n1CCc1ccccc1 | inconclusive: 1.13% [signal inhibitor] | 
CCOc1cccc(NC(=O)C2CC(=O)N(C)C(=Nc3ccccc3)S2)c1 (stereo unspecified) | inconclusive: 5.04% [signal inhibitor] | 
COc1ccc(-n2c(=O)c(-c3cn(C)c4ccccc34)nc3cnc(N4CCOCC4)nc32)cc1 | inactive: 0.0755% [at 11.4 µM, scaled: untreated 0%, proteasome inhibitor 100%] | 
COC(=O)c1scc(-c2ccc(C)cc2)c1S(=O)(=O)N1CCN(c2cccc(Cl)c2)CC1 | inconclusive: -1.02% [signal inhibitor] | 
CC(=O)N1CCc2c(sc3c2c(=O)n(-c2ccccc2C)c(=O)n3CC(=O)Nc2ccccc2)C1 |  | inconclusive: 20 µM [signal inhibitor]
O=C(CCN1C(=O)COc2ccccc21)NCc1ccco1 | inactive: 2.19% | 
Cn1c(=O)sc2cc(NS(=O)(=O)c3ccc(C(C)(C)C)cc3)ccc21 | inconclusive: 0.159% [signal inhibitor] | 
Cc1ccc(S(=O)(=O)c2nc(-c3cccs3)oc2N2CCC(C)CC2)cc1 | inconclusive: -4.14% [signal inhibitor] | 
Cc1c(C(=O)Nc2c(F)cccc2F)sc2ncn(Cc3ccccc3F)c(=O)c12 | inconclusive: 2.36% [signal inhibitor] | 
CCCCN(C)C(=O)CCC(=O)NNc1nc2ccccc2c2nc(C)nn12 | inactive: -0.298% | 
COc1cc2c(cc1OC)C(COc1cc(C)cc(C)c1)N(C(=O)C(C)(C)C)CC2 (stereo unspecified) | inconclusive: 0.216% [signal inhibitor] | 
CCC(Nc1ccc(-c2nc(-c3ccccn3)no2)cc1[N+](=O)[O-])c1ccccc1 (stereo unspecified) | inconclusive: 0.904% [signal inhibitor] | 
Cc1cccc(N2CCn3c2nc2c3c(=O)n(CCCc3ccccc3)c(=O)n2C)c1 | inconclusive: -0.0152% [signal inhibitor] | 
